Hit rate of the full screen: of about 71,000 compounds, about 1,800 (2.5%) were called active. The inconclusive results got no clear call from the source; some entries with a clear call stand among them for comparison. Calls come from the whole dose curve; as a rule, active = well fitted activation curve with a large enough effect in the signal ratio, with a control signal flat (not every such curve was filed as active); inconclusive = small, poorly fitted or top-dose-only effect, or effect the other way, or a change in a side signal; inactive = flat fitted curve, though single readings scatter; the % refers to the signal ratio. Potencies beside an inconclusive call are fits to weak or partial responses and may not hold up.
Assay: Cell signaling CRE-BLA (Fsk stim); for activity change, negative = inhibition: % of control where 0% means no effect
Conditions: CHO CRE-bla reporter (cAMP response element driving beta-lactamase), forskolin EC10, beta-lactamase ratio; activity change, negative = inhibition: at 38.2 µM (top of the series) unless noted
In short: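 Forskolin analogue NKH 477 at EC10 stimulated CRE-driven beta-lactamase in CHO cells alongside compound dilution series. Beta-lactamase was measured with CCF4, excitation 405 nm, emission ratio 460/530 nm.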
Potency is the fitted concentration of half-maximal effect; tags give direction and shape of the fitted curve.

| SMILES | Potency | activity change, negative = inhibition |
| --- | --- | --- |
| c1cncc(-c2nc(NCc3cccs3)c3ccccc3n2)c1 | inconclusive: 10 µM [rising, partial curve] |  |
| CC1CCC(NC(=O)c2cc3c(=O)n(C)c4ccccc4c3n2C)CC1 (configuration not stated) | inconclusive: 3.16 µM [rising, single point] |  |
| CS(=O)(=O)N1CCC2(CC1)CN(Cc1ccc(C#N)cc1)C2 |  | inactive |
| CCCS(=O)(=O)N1CCCC(C(=O)NCCCN2CCN(c3ccc(F)cc3)CC2)C1 (configuration not stated) |  | inactive |
| Cc1ccc(C(=O)Nc2ccc3c(c2)nc2n3CCSC2)cc1 |  | inconclusive: 0.256% |
| N#CCCNCC1(c2ccccc2)CCCC1 |  | inconclusive: -2.25% |
| CCn1nc(NS(=O)(=O)c2ccccc2)c2cc3cccc(C)c3nc21 | inconclusive: 25.1 µM [rising, single point] |  |
| COc1ccc(C(=O)N2CCN(c3nc4cc(C)ccc4cc3C#N)CC2)c(OC)c1 |  | inconclusive: -3.35% |
| O=C(c1ccc(CS(=O)(=O)c2ccccc2)o1)N1CCN(c2ncccn2)CC1 | inconclusive: 10 µM [rising, partial curve] |  |
| O=C(Nc1nc(-c2nc3ccccc3s2)cs1)C1CC1 |  | inconclusive: -2.86% |
| C=C(C)COc1ccc(-c2[nH]ncc2Oc2cccc(OC)c2)c(O)c1 |  | inconclusive: 16.5% |
| CC(C)CN(C)c1nc(N)c(C(=O)N=C(N)N)nc1Cl |  | inactive |
| CCOC(=O)c1cc2sc(C)cc2n1C(C)C(=O)OCC (configuration not stated) |  | inactive |
| COc1ccccc1S(=O)(=O)Cc1ccc(C(=O)NC2CCCCC2)o1 |  | inactive |
| O=S(=O)(c1ccc(C2=CSC3=NCCN23)cc1)N1CCOCC1 |  | inactive |
| c1coc(-c2nc(-c3ccco3)c(-c3ccco3)nc2-c2ccco2)c1 |  | inactive |
| O=C(Nc1nncs1)c1ccc(N2C(=O)C3C4C=CC(C4)C3C2=O)cc1 (configuration not stated) | inconclusive: 12.6 µM [rising, partial curve] |  |
| COc1ccc(OC)c(S(=O)(=O)N2CCCCC2C(=O)N2CCN(c3ccccn3)CC2)c1 (configuration not stated) |  | inconclusive: 25.4% |
| C=CCNC(=O)c1ccncc1 |  | inconclusive: -6.89% |
| N#Cc1c(NC(=O)c2cc(-n3cnnc3)ccc2Cl)sc2c1CCCC2 |  | inconclusive: 0.468% |
| COc1cccc(-c2nc(CS(=O)(=O)CC(=O)N3CCN(c4ccccn4)CC3)c(C)o2)c1 |  | inconclusive: 21.3% |
| CC(C)(C)NC(=O)C1N(c2cccnc2)C(=O)C2C(C(=O)Nc3ccccc3F)C3(C)C=CC21O3 (configuration not stated) | inconclusive: 3.98 µM [rising, single point] |  |
| Cc1cc2nc(SC(C)C(=O)O)[nH]c2cc1C (configuration not stated) |  | inconclusive: -7.08% |
| COc1ccc(Oc2ncc3nc(-c4cc(F)cc(F)c4)c(=O)n(C4CC4)c3n2)cc1 |  | inactive |
| Cc1cc(N2CCN(C(=O)c3ccco3)CC2)n2nc(C)c(-c3ccc(Cl)cc3)c2n1 | inconclusive: 20 µM [rising, partial curve] |  |
| Cc1cc(C)n2c(SCC(=O)N3CCN(S(=O)(=O)c4ccc(Cl)cc4)CC3)nnc2n1 |  | inconclusive: -18.5% |

| SMILES | Potency | activity change, negative = inhibition |
| --- | --- | --- |
| CC(C)CCn1c(=O)c2ccccc2n2c(COC(=O)c3ccc(S(=O)(=O)N(C)C)cc3)nnc12 |  | inconclusive: 9.12% |
| O=C(CSc1nnc(-c2cccs2)n1Cc1ccco1)c1ccc2c(c1)OCO2 | inconclusive: 12.6 µM [rising, single point] |  |
| O=c1[nH]c(CN2CCN(Cc3ccccc3)CC2)nc2sc3c(c12)CCC3 | inconclusive: 3.98 µM [falling, single point] |  |
| Cn1c(=O)n(C)c2cc(S(=O)(=O)NCCc3ccccc3)ccc21 |  | inconclusive: 7.22% |
| CSC1=C(C#N)C(CC(C)C)C2=C(CCCC2=O)N1 (configuration not stated) |  | inactive |
| Cc1nc2c(C(=O)NCc3ccc4c(c3)OCO4)c[nH]n2c(=O)c1Cl |  | inactive |
| COc1ccc(NC(=O)c2oc3ccc(S(=O)(=O)N4CCC5(CC4)OCCO5)cc3c2C)cc1 |  | inconclusive: 0.574% |
| CC(CCO)Nc1nc2c(c(=O)n(C)c(=O)n2C)n1Cc1cccc(Br)c1 (configuration not stated) | inconclusive: 12.6 µM [rising, single point] |  |
| CCCn1c(=O)[nH]c(=O)c2c1nc(-c1ccc3c(c1)OCCO3)n2CCN1CCOCC1 | active: 3.98 µM |  |
| CCOC(=O)C1CCN(C(=O)CCc2nc3ccccc3[nH]2)CC1 | inconclusive: 12.6 µM [rising, partial curve] |  |
| Cc1ccc(S(=O)(=O)Nc2ccc3oc(=O)sc3c2)c(C)c1 |  | inconclusive: -16.5% |
| O=C(c1cc(-c2ccco2)nn1-c1cccc(Cl)c1)N1CCCCC1 |  | inconclusive: -26.5% |
| CC1(C)S[C@@H]2[C@H](C(=O)O)N=C(Cc3ccccc3)N2[C@H]1C(=O)O |  | inactive: -2.6% [at 7.6 µM] |
| CCCN(c1nc(C)cc(OC)n1)S(=O)(=O)c1ccccc1 |  | inconclusive: -4.54% |
| O=C(CCN1C(=O)C2C3C=CC(C3)C2C1=O)Nc1ccc(F)cc1 (configuration not stated) |  | inconclusive: -18.4% |
| O=C1CN(C(=O)COC(=O)C2=COCCO2)c2ccccc2N1 |  | inactive |
| CN(C)CCSc1nc(N)c2c3c(sc2n1)CN(C)CC3 |  | inconclusive: -9.74% |
| CCOC(=O)CNC(=O)CSc1nnc(Cn2c(=O)sc3ccccc32)n1-c1ccccc1C |  | inconclusive: 3.73% |
| Cn1c(=O)c(-c2cccc(C#N)c2)nc2cnc(Oc3ccccc3)nc21 |  | inconclusive: 16.4% |
| COc1ccccc1N1CCN(CC(O)COc2ccc3c(C)cc(=O)oc3c2)CC1 (configuration not stated) |  | inconclusive: -4.1% |
| CCC1CCCCN1C(=O)COC(=O)c1cc2ccccc2cc1O (configuration not stated) | inconclusive: 5.01 µM [falling, single point] |  |
| Cc1[nH]nc2ncc(C(=O)c3ccccc3O)cc12 |  | inconclusive: -26.5% |
| Brc1ccc2[nH]c3nc(SCCN4CCOCC4)nnc3c2c1 | active: 2.51 µM |  |
| c1nc(N2CCC3(CC2)OCCO3)c2c3c(sc2n1)CCCC3 |  | inconclusive: 2.32% |
| O=C(Oc1ccc(Cl)c2cccnc12)N1CCOCC1 |  | inconclusive: 22.4% |
| Cc1cc2c3nonc3ccc2n1-c1ccccc1 | inconclusive: 3.98 µM [rising, partial curve] |  |

Source: PubChem BioAssay AID662 (National Center for Advancing Translational Sciences (NCATS), 2007)
